These results are taken from ChEMBL document CHEMBL4888484, “Replenishing the malaria drug discovery pipeline: Screening and hit evaluation of the MMV Hit Generation Library 1 (HGL1) against asexual blood stage Plasmodium falciparum ,using a nano luciferase reporter read-out” (2022).

Among all 150,000 compounds or so, about 540 (0.36%) showed an effect of 50% or more. The list shows a part of the results.

In general, % Inhibition refers to the change of the read-out against control, counted positive when it falls.

This assay concerns Plasmodium falciparum. The assay can be described thus: Primary screen in NF54 nanoGlo assay, in single point, at 2uM, 72h; a lower Z score goes with more inhibition. It is filed as functional, Erythrocyte. The note with it: timepoint 72 hour.
With `CN(C(=O)CCc1ccsc1)c1ccccc1S(C)(=O)=O`, the “% Inhibition” value turned out to be 1% and the Z score is -0.19.
In the case of `CC(C)c1c(C(=O)N2CCN(Cc3ccccc3)CC2)cnn1-c1nccc(-c2cccs2)n1`, the “% Inhibition” value was -6% and the Z score came to 1.06.
In the same order, the values of `CCOCC(=O)N1CCN(Cc2ccc(C)o2)[C@@H]2CS(=O)(=O)C[C@@H]21` are 1% and -0.1.
In the same order, the values of `C[C@]1(NC(=O)c2occ3c2CCOC3)CCOc2ccccc21` are -8% and 1.48.
On the same counts, the results for `Cc1cc(Br)ccc1CN(C)CC(=O)Nc1cccnn1` are -2% and 0.33.
Regarding `Cc1cnc(CNC(=O)[C@H]2CCCO2)o1`, the “% Inhibition” value is -5% and the Z score is given as 0.56.
On the same counts, the results for `Cc1ccc(N(C)C(=O)c2cccnc2N(C)C)c(C)c1` are -6% and 0.78.
On the same counts, the results for `O=C1CC[C@H](NC2CCCCCCC2)CCN1Cc1cc2c(cc1Cl)OCO2` are 15% and -1.65.
In the same order, the values of `CC(C)(C)OC(=O)N/N=C(/N)Cc1ccc(Cl)cc1` are -3% and 0.34.
As to `O=C(NCc1nc(C2CCCCC2)no1)C1(N2CCCC2)CCCCC1`, the “% Inhibition” value is reported as -7% and the Z score was 0.84.
Take `CC1CN(C(C)C(=O)Nc2ccccc2-c2ccccc2)CCO1` (stereo unspecified): the “% Inhibition” value is on record as -3% and the Z score is 0.37.
In the case of `C[C@H](NC(=O)NC1(C(N)=O)CCCC1)c1ccsc1`, the “% Inhibition” value is on record as -7% and the Z score is on record as 0.77.
Turning to `O=C(Cc1cccc(O)c1)N(CCc1ccccc1)[C@H]1CCOC1`, the “% Inhibition” value is recorded as -8% and the Z score is given as 0.91.
For the compound `Cc1nc2ccccc2c(NC(=O)[C@H]2CCN(C)C(=O)C2)c1C(C)C`, the “% Inhibition” value is -8% and the Z score was 1.15.
`COCC[C@]1(NS(=O)(=O)c2ccccc2)CCN(C(=O)c2cnn(C)c2C)C1`: the “% Inhibition” value is -14% and the Z score was 1.57.
On the same counts, the results for `Cc1ccsc1-c1nsc(NC(=O)N[C@H]2CCO[C@@H]2c2ccncc2)n1` are -4% and 0.37.
On the same counts, the results for `Cc1ccsc1-c1[nH]nc(N)c1-c1ccc2c(c1)OCO2` are -3% and 0.44.
In the same order, the values of `C[C@H]1CCCN(c2ccc(C(N)=O)cc2NC(=O)c2onc3ccccc23)C1` are 2% and -0.23.
For the compound `CC[SH](=O)(O)c1ccc2c(c1)N(CC(=O)N1CCN(c3ccc(OC)cc3)CC1)C(=O)CO2`, the “% Inhibition” value is recorded as 27% and the Z score is given as -3.04.
`Cc1cc(CNC(=O)N2CCC[C@H](c3cncn3C(C)(C)C)C2)on1`: the “% Inhibition” value is recorded as -9% and the Z score is given as 1.23.
For the compound `CCc1ncc(CN(C)Cn2c3c(sc2=O)C[C@@H](C)CC3)s1`, the “% Inhibition” value is recorded as -15% and the Z score was found to be 1.55.
On the same counts, the results for `Cc1cnc(CC2CCN(C(=O)c3ccco3)CC2)n1CC1CC1` are -16% and 2.23.
For the compound `Cc1cncc(CCC(=O)NC[C@]23C[C@H]2COC32CCC2)c1`, the “% Inhibition” value was -1% and the Z score is 0.18.
